Measurements taken from PMC12136788.
Some of the results follow.

T1: UNK ZnF1-6 (called full-length) (human, UniProt Q9C0B0 30-357)
T1 sequence: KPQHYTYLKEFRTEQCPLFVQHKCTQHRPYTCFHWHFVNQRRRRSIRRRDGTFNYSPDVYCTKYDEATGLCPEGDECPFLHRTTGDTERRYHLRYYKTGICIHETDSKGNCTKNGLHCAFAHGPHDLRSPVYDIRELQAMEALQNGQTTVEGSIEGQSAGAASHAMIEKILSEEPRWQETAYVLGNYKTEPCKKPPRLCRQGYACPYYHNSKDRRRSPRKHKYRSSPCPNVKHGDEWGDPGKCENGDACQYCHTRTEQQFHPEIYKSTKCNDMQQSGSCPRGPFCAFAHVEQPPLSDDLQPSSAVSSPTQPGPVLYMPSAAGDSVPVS

B1: chr3:98797769:98798349:-|3pUTR|ENSG00000057019|msi1|total|mutant (ssRNA)
RNA: GGGAGUUCUACAGUCCGACGAUCUUGUUUUUGAUACCUCCUGGCAGCUUCCAUGUCACCACUUGUUCAUACCUGCCCAGAGCCCGUUUCCGACAUGGCAAAACCGAAAUCAUCUGUAAUUUAUCCGCUAACAAUGUAAAACCACAACAGAGGAUUGAGCAUCA
B2: chr6:30743938:30744518:-|CDS|ENSG00000137331|control|control|control (ssRNA)
RNA: GGGAGUUCUACAGUCCGACGAUCUGGGGAACGACCCGACUCCAGAGGCCUCGACCUGACCUGUCUCCUGUUUUGUCUCCCCUUAGGUCCGGCGCCAGCUGCCAGUCGAGGAACCGAACCCAGCCAAAAGGCUUCUCUUUCUGCCAACAGAGGAUUGAGCAUCA
B3: chr6:73641827:73641929:-|CDS|ENSG00000119899|unk|FALSE|unique (ssRNA)
RNA: GGGAGUUCUACAGUCCGACGAUCGAGAAAAGAGCUGCUCUGUGAAGGUCUUAAAGGAUUGUUUUAUUCUUUUCUGAUUUUUGUAGGGUAAGAAGUACCAAUGGGAUGCAGAAACUCAAGGAUGGAUUCUCGGUUCCUUUUUUUCAACAGAGGAUUGAGCAUCA
B4: ENSG00000070961:be:win_101|CDS|ENSG00000070961|bound_else_gene|NA|bound_elsewhere_windowed (ssRNA)
RNA: GGGAGUUCUACAGUCCGACGAUCUGCGGGCUCUCAUGGAGCUCAGGUCCACAGAUGCAUUACGAAAAAUACAGGAAAGCUAUGGAGAUGUCUAUGGAAUUUGCACCAAAUUGAAAACAUCUCCCAAUGAAGGUUUAAGUGGAACAACAGAGGAUUGAGCAUCA
B5: chr1:183142599:183142700:+|CDS|ENSG00000135862|msi1|FALSE|unique (ssRNA)
RNA: GGGAGUUCUACAGUCCGACGAUCAACGAGAUUGAAGGCACCCUAAACAAAGCCAAAGAUGAAAUGAAGGUCAGCGAUCUUGAUAGGAAAGUGUCUGACCUGGAGAAUGAAGCCAAGAAGCAGGAGGCUGCCAUCAUGGACUAUCAACAGAGGAUUGAGCAUCA
B6: ENSG00000164609:stop:overlap|stop_codon|ENSG00000164609|stop_codon|NA|stop_codon (ssRNA)
RNA: GGGAGUUCUACAGUCCGACGAUCAGGCAUAUAGAAUGAAACGUCAGAGGCCAGAUGACCCCAUGGCCUCUUUCCUUGGACAGUAGCAACUAGUCAGAAGACCAUCCAAGAUAGAUGCAGCUGAUACAUUCUUUUCAGCUUCUUCAACAGAGGAUUGAGCAUCA
B7: chr7:80742675:80742739:-|3pUTR|ENSG00000075223|msi1_unk|FALSE|overlapping (ssRNA)
RNA: GGGAGUUCUACAGUCCGACGAUCGUAGCUUGACAAUUCAGUGACUUAAUAUCUAUUCCAUUUGUAUUGUACAUAAAAUUUUCUAGAAAUACACUUUUUUCCAAAGUGUAAGUUUGUGAAUAGAUUUUAGCAUGAUGAAACUGUCAACAGAGGAUUGAGCAUCA
B8: ENSG00000198589:be:win_651|CDS|ENSG00000198589|bound_else_gene|NA|bound_elsewhere_windowed (ssRNA)
RNA: GGGAGUUCUACAGUCCGACGAUCUGCAUUACCUCCUAUAGCCAAAUGGCCAUACCAGAAUGGUUUUACAUUUCAUACAUGGCUUAGAAUGGAUCCUGUAAAUAACAUCAAUGUAGAUAAGGAUAAACCAUAUUUGUAUUGUUUCAACAGAGGAUUGAGCAUCA
B9: chr2:9584341:9584442:-|3pUTR|ENSG00000134308|msi1_unk|FALSE|overlapping (ssRNA)
RNA: GGGAGUUCUACAGUCCGACGAUCUUUCCAUGCAGAUUUGUGCACAUGUGAGAGGGUGUCCAGUUUGUCUAGUGAUUGUUAUUUAGAGAGUUGGACCACUAUUGUGUGUUGCUAAUCAUUGACUGUAGUCCCAAAAAAGCCUUGCAACAGAGGAUUGAGCAUCA
B10: chr14:57493492:57493715:-|CDS|ENSG00000100557|control|control|control (ssRNA)
RNA: GGGAGUUCUACAGUCCGACGAUCGAGUCACUCUAAGACUCACCUUAGGGUGAUCAAAGUAGCACCUUUGCAAAACAAAGAGGUAGAGACUCCCUCGGCUGGCCGUGUGGACUUUGCAUUCAAUCAGAAUUUGGAAGAAAAGACCAACAGAGGAUUGAGCAUCA
B11: chr2:105361111:105361195:-|3pUTR|ENSG00000115641|msi1_unk|total|mutant (ssRNA)
RNA: GGGAGUUCUACAGUCCGACGAUCCUUUCUCACCCAGGCAAUCUUGCCUUCUGGUUUCUUCCAGCCACAUUGAGACUUUCUUCCCGUGCUUUUCAGUGAUACUCACGUUUGCUUAAACCCUUCCGUGCUUUGUGACCGUUCAGUCAACAGAGGAUUGAGCAUCA
B12: chr7:94910433:94910544:+|CDS|ENSG00000158528|unk|FALSE|bound_elsewhere (ssRNA)
RNA: GGGAGUUCUACAGUCCGACGAUCCUGGAAAAAACAGAUGGCUCAGUUGUUAAGUUGGAGUCUUCUGUUUCUGAACGAAUUAGUAGAUUUGACACUAUGUACGAUGGCCCUUCAUAUUCCAAGUUCACUGAGACUCGAAAGAUGCAACAGAGGAUUGAGCAUCA
B13: chr9:33053202:33053303:-|CDS|ENSG00000122692|msi1|total|mutant (ssRNA)
RNA: GGGAGUUCUACAGUCCGACGAUCCCUAAAACUUCCGAAAUUUUUAUACCUAAAAAAGGUUUAUAACUUAAAUUUCUGUGUGGCCGAUCUGGAAUAUGAAGACCACAGAAUGUUCAAAUACCUUUAAAUCCCUGGGCAGCACCGCAACAGAGGAUUGAGCAUCA
B14: ENSG00000136451:be:win_3451|3pUTR|ENSG00000136451|bound_else_gene|NA|bound_elsewhere_windowed (ssRNA)
RNA: GGGAGUUCUACAGUCCGACGAUCCAAAAUGUAGAGAAAAAUAUGUAGCUAUGACUUUGUUACAACUGUUCUUAUCCACAGUACAAAAAUGGUUUGUUUUUAAUAUGUAGAGCAUUAUGUGUGGACUACUGGAAGGACUCGUGUCAACAGAGGAUUGAGCAUCA
B15: chr7:44064065:44064166:+|3pUTR|ENSG00000136279|msi1|FALSE|unique (ssRNA)
RNA: GGGAGUUCUACAGUCCGACGAUCGCACACCCUUCUAGCCUUUCCAGGACUCAACAAGCUUUAAGGUCAUUCAGAUGCUAAUUUAGACUGCCCUUGUGUCAGAAUACUAAGGUGGGAGGCGGAGCGGAGGUGCCAGUCACUCUGCAACAGAGGAUUGAGCAUCA
B16: chr15:49876277:49876523:-|three_prime_utr|ENSG00000104043|control|control|control (ssRNA)
RNA: GGGAGUUCUACAGUCCGACGAUCUCUGCUUUUUAACAAGCGUAAAUUUUUCAUUUGCGUGUUGCAUGGAAUCUACACCUCAUUAGUCCUUUUCUUCAUCCCCUAUGGGGCCUUUUACAACGUGGCUGGAGAAGAUGGGCAACACAACAGAGGAUUGAGCAUCA
B17: ENSG00000107863:be:win_2551|CDS|ENSG00000107863|bound_else_gene|NA|bound_elsewhere_windowed (ssRNA)
RNA: GGGAGUUCUACAGUCCGACGAUCUUAAUUCGCCGUCAGCUCUCACAUGACCACGAAUCUGUUGGCCCUCCUAGCCUGGAUGCUCAGCCCAACUCAAAGACAGAAAGAUCAAAAUCAUAUGAUGAGGGUCUGGAUGAUUACAGACAACAGAGGAUUGAGCAUCA
B18: chr2:27781378:27781788:-|three_prime_utr|ENSG00000171174|control|control|control (ssRNA)
RNA: GGGAGUUCUACAGUCCGACGAUCAACACAGUCAUCUUACCCUUACAAAAAAGACCUUCCGCUUACUCUGUUUUGAUUGCUAUUAGUCCCAAAAUAAAUAUACCUGGGAAUAAAAUGUACUUGGGGGUGGCUGCUCCUGGCUAACAACAGAGGAUUGAGCAUCA
B19: chr12:133204733:133204837:+|3pUTR|ENSG00000090612|unk|total|mutant (ssRNA)
RNA: GGGAGUUCUACAGUCCGACGAUCCAAAAAGACCGCCGACAAUACACAGGAAAACUGAAUUCCGUAACCACUCUGAAAAUUUUCCGCAGCAAGUCAUACCUUUUUUUAAAAAGUUCAUACAGGUGAGGAACCAUGUUAAACGUUCAACAGAGGAUUGAGCAUCA
B20: ENSG00000107863:be:win_6251|3pUTR|ENSG00000107863|bound_else_gene|NA|bound_elsewhere_windowed (ssRNA)
RNA: GGGAGUUCUACAGUCCGACGAUCUAUUGUUAAAAUUAGAUAACUUACUUACAUUGAAUAAACGAAUGCGUUUUAUUGGUAACAGAUAUCAUUACAUUUACCAGUUUUAACACAGGUGGAUACAGAACUUCCAUUCUUUAGUCACAACAGAGGAUUGAGCAUCA
B21: chr5:24509697:24509799:-|CDS|ENSG00000040731|unk|total|mutant (ssRNA)
RNA: GGGAGUUCUACAGUCCGACGAUCACUCGACUAUGAGAGCCGAAGACUUUAUACUCUGAAAGUCGAAGCAGAAAACACCCAUGCCGAUCCCCGUUUUUAUUACCCCGGACCAUUUAAAGAUACUACCACCGUGAAAAUCUCUAUCAACAGAGGAUUGAGCAUCA
B22: chr1:180885099:180885158:+|3pUTR|ENSG00000143324|msi1_unk|total|mutant (ssRNA)
RNA: GGGAGUUCUACAGUCCGACGAUCAGCUGAAGCUAUGCCUUAUUAUGCAUCCACAUGUAUGGUCCCUGCCGCGUGACCUUUACCCGCUCUGAAUCAGAAGACAGAGCUAUUUCAGAGGCUCUGUGUGCCCUCACCCGACCGUUUCAACAGAGGAUUGAGCAUCA

What follows are binders tested against T1, UNK ZnF1-6 (called full-length) (assay: nsRBNS (natural sequence RNA bind-n-seq); RBNS binding buffer (assumed for nsRBNS): 25 mM Tris pH 7.5, 150 mM KCl, 3 mM MgCl2, 0.01% Triton X-100, 500 ug/ml BSA, 20 U/ml SUPERase-In, 4 C; UNK is unkempt and MSI1 is Musashi-1; names of the RNAs are library labels; protein concentration not given here; high values mean tight binding).

Binder | binding signal [enrichment R]
B1 | 0.619
B2 | 1.02
B3 | 0.417
B4 | 0.441
B5 | 0.678
B6 | 0.598
B7 | 1.16
B8 | 0.554
B9 | 0.516
B10 | 0.515
B11 | 0.511
B12 | 0.459
B13 | 0.514
B14 | 0.668
B15 | 0.816
B16 | 1.06
B17 | 0.436
B18 | 0.934
B19 | 0.289
B20 | 1.8
B21 | 0.449
B22 | 0.559
